Source: PubChem BioAssay (NCATS)
Values joined by “and” are separate entries in the source; they are usually repeats but may differ in a detail not shown here. Identical values can stand only once. Inconclusive results, whose numbers are uncertain, are shown with a selection of clear calls. A potency beside an inconclusive call is a rough fit, not a confirmed value. Active and inactive are the calls of the source. Calls come from the whole dose curve; as a rule, active = well fitted cell-killing curve with a large enough effect; inconclusive = small, poorly fitted or top-dose-only effect, or effect the other way; inactive = no such curve, though single readings can be large or run the other way.

Columns and labels:
[1] = Viability qHTS for spleen associated tyrosine kinase inhibitor (SYKi) naive MV4-11 cells (AID 1963823); details: MV4-11 AML viability, CellTiter-Glo luminescence, 72 h; series mostly up to 45 µM; note: nearly all actives have a fitted effect of over 40% in size
Outline: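 CellTiter-Glo luminescence, 10 min room-temperature incubation, gave viability. Cells: naive MV4-11 (500/well), treated 72 hr at 37 C, 5% CO2.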

[2] = Viability qHTS for spleen associated tyrosine kinase inhibitor (SYKi) drug resistant MV4-11 cells (AID 1963824); note: nearly all actives have a fitted effect of over 35% in size
Outline: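 SYK inhibitor-resistant MV4-11 AML cells, 500 per well, added to predispensed compounds and incubated 72 hr at 37 C, 5% CO2. Viability measured by CellTiter-Glo luminescence after 10 min at room temperature.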
Potency is the fitted concentration of half-maximal effect; tags give direction and shape of the fitted curve.

SMILES | Potency [1] | Potency [2]
CC1NC(=O)CNC(=O)C(C(C)C)NC(=O)C2CCCN2C(=O)C(C(C)C)NC(=O)C(Cc2c[nH]c3ccccc23)NC1=O (centres undefined) | inactive | inactive
COc1ccc(COc2ccc(Cc3cnc(N)nc3N)cc2OC)cc1 | inconclusive: 6.51 µM [cytotoxic, full curve] and inconclusive: 37.2 µM [cytotoxic, single point] | inconclusive: 37.2 µM [cytotoxic, single point]
COc1cc([C@H]2OC[C@@H]3[C@@H](c4ccc(O[C@@H]5O[C@H](CO)[C@@H](O)[C@H](O)[C@H]5O)c(OC)c4)OC[C@]23O)ccc1O | inactive | inactive
C[C@@H](c1nc(-c2ccc(C#N)cc2)cs1)[C@](O)(Cn1cncn1)c1cc(F)ccc1F | inconclusive: 2.06 µM [cytotoxic, full curve] | inconclusive: 2.59 µM [cytotoxic, full curve]
Clc1cccc(-c2ccc(-c3nnc(CCCc4ccc5cccnc5n4)o3)cc2)c1 | inconclusive: 16.6 µM [cytotoxic, partial curve] | inconclusive: 16.6 µM [cytotoxic, partial curve]
COc1cc(CCO)ccc1O[C@@H]1O[C@H](CO)[C@@H](O)[C@H](O)[C@H]1O | inactive | inactive
C=C[C@]1(C)C[C@@H](OC(=O)CSC2C[C@H]3CC[C@@H](C2)N3C)[C@]2(C)[C@H](C)CC[C@]3(CCC(=O)[C@H]32)[C@@H](C)[C@@H]1O (some centres undefined) | inconclusive: 20.6 µM [cytotoxic, partial curve, poor fit] | inconclusive: 14.6 µM [cytotoxic, partial curve]
